B1: LINE1-mini (parent)
chain: GGCAGAGCUCAACACAGCGUGGCAAAGUGGCUGUGGCUAGACUGCC

The source gives no read counts; variants with many changes may rest on few reads.

This data set covers variants of B1. Put plainly: self-cleavage, relative activity (ratio to wild type); higher = more cleavage; in vitro, sequencing; the parent is a self-cleaving ribozyme.
As to G2U C31G G36C C46U, the self-cleavage is 0.02.
G2U G36U U38C A41G: the self-cleavage was determined as 0.04.
Turning to G2U C15A G30U G33U, the self-cleavage came to 0.05.
For the variant C3A A6G A25C G40A G44U C46U, the self-cleavage turned out to be 0.11.
On to C3A A6G C13G U34C, for which the self-cleavage is 0.09.
As for G2U C13A A25G G30A G35A, the self-cleavage was determined as 0.01.
On to C3A A4C A16C C37U, for which the self-cleavage turned out to be 0.92.
For the variant G2U C15U C31U, the self-cleavage came to 0.01.
In the case of G2U C18A U20C, the self-cleavage is 0.
Consider C3A A4C G5C G30U C31G U43C, for which the self-cleavage was determined as 0.03.
As to G2U C23U A41U C42G G44C, the self-cleavage is 0.03.
As for C3A A4C G7U C31U U32G G33C, the self-cleavage stood at 0.58.
In the case of C3A A6U A14C G21A, the self-cleavage is 0.12.
With G2U G33A U43A C45U, the self-cleavage was 0.04.
Regarding G2U G7A U38A, the self-cleavage was determined as 0.1.
The figure for G2U G5U G29U is 0.02.
Consider G2U G5C C15G C18G, for which the self-cleavage was found to be 0.03.
Regarding G2U C18A G33U, the self-cleavage amounted to 0.04.
Consider G2U G21U G33U, for which the self-cleavage came out at 0.01.
G2U G29C C46A: the self-cleavage worked out at 0.1.
G2U G7C A11C A24C U34C C37A A39U: the self-cleavage was determined as 0.
Consider G2U G5U A11C, for which the self-cleavage was 0.
The figure for G2U G30A U38C is 0.05; for G2U U9G G27A it is 0.04.
Turning to G2U G29C U34A G36C, the self-cleavage turned out to be 0.01.
For the variant G2U C13U G17A A41U U43A, the self-cleavage amounted to 0.02.
Take G2U C15U A16U C23A U32G: the self-cleavage was determined as 0.04.
Consider G2U U34G G40A, for which the self-cleavage came to 0.03.
As to G2U G22A A39G G40C, the self-cleavage stood at 0.04.
Then G2U G7C G21U G40U, with 0.04; and C3A A4C G19C A24U C45G, with 0.07; and G2U C42A C45A, with 0.06.
Turning to G2U C10G A16C G22A G33C, the self-cleavage was 0.01.
The figure for G2U G7U A12C C23U C42A is 0.01; for C3A A4C A11U it is 0.04.
In the case of C3A A4C A11C, the self-cleavage was found to be 0.02.
As to G2U G30U C46A, the self-cleavage came to 0.08.
In the case of G2U U34A C46U, the self-cleavage came to 0.03.
Then G2U C15G U28A C31G G33C, with 0.01.
G2U C13A U38A G40A: the self-cleavage worked out at 0.01.
As to G2U C37U A39G, the self-cleavage stood at 0.01.
As to G2U G19U U32A G33A, the self-cleavage was 0.01.
G2U C10U A16G: the self-cleavage was determined as 0.02.
For the variant G2U C15U G40A U43C, the self-cleavage stood at 0.01.
G2U C13A C45U: the self-cleavage was 0.01.
With G2U G35C C42U C45A, the self-cleavage stood at 0.03.
Turning to G2U G17C A24G U38C, the self-cleavage was 0.01.
In the case of G2U C13A A14G G30C, the self-cleavage stood at 0.03.
G2U G36C U38G G44C: the self-cleavage was 0.05.
Consider C3A A4C A16U A24C G30C G36U, for which the self-cleavage was found to be 0.17.
Consider G2U U34G C46U, for which the self-cleavage is 0.02.
On to G2U U28C G40C, for which the self-cleavage is 0.02.
Regarding G2U C13G G27C C31U, the self-cleavage was found to be 0.06.
The figure for G2U G22U C37U U38C is 0.03; for C3A A6C A26U U43A C45A it is 0.39.
Consider G2U C18G A24U G29U, for which the self-cleavage was determined as 0.01.
Then G2U G7U C8A, with 0.05.
Then G2U G5C A14U G21U U38G, with 0; and G2U C15U A16U G44U, with 0.02; and G2U G7U U9C, with 0.
As to G2U G5U G21U G35U, the self-cleavage is 0.09.
C3A A4U G22U: the self-cleavage came out at 0.66.
For the variant C3A A4G G17A, the self-cleavage was determined as 0.12.
For G2U G5U C37U A39C G40A, the self-cleavage is 0.
Take G2U G17A G22U C42U: the self-cleavage was determined as 0.02.
Turning to C3A A6G C18U C31A U34G, the self-cleavage was 0.02.
As for G2U C10A U34A G36U, the self-cleavage worked out at 0.02.
With G2U U20A G35U, the self-cleavage came to 0.06.
Regarding G2U G35C C42A, the self-cleavage was determined as 0.03.
Then G2U C13U A41C, with 0.01.
As to G2U G5A U20A U34A, the self-cleavage amounted to 0.01.
G2U U9C A11U A26C U34C U38G C45U: the self-cleavage is 0.
As for G2U G5A U38C C45A, the self-cleavage amounted to 0.
Consider G2U C23A U34G A39U, for which the self-cleavage came to 0.03.
The figure for C3A A6G A12C is 0.02; for G2U G17A U34G it is 0.21.
With C3A A6G G27C U43A, the self-cleavage amounted to 0.06.
Take G2U U9C U32G G40C C46A: the self-cleavage was 0.01.
In the case of G2U C10U A24G C37U C42G, the self-cleavage came out at 0.02.
On to C3A A4U A6C G7U U9A G21U, for which the self-cleavage turned out to be 0.22.
In the case of G2U C18A C23G, the self-cleavage was 0.02.
For the variant G2U C37G G40U, the self-cleavage amounted to 0.01.
The figure for G2U G27U G29A is 0.2; for G2U C23U G27U it is 0.01; for G2U G7U C15U C37G A39U it is 0.08.
Turning to G2U G17A G22U A24U G27C U34A, the self-cleavage is 0.09.
Regarding G2U G29U C37U G40U, the self-cleavage stood at 0.02.
With G2U C10G C37U, the self-cleavage turned out to be 0.02.
On to C3A A6U C8U G17A C23U G35U, for which the self-cleavage amounted to 0.27.
On to G2U U20A C23U C46G, for which the self-cleavage turned out to be 0.19.
For the variant G2U G29A C31A C37A, the self-cleavage came out at 0.01.
Then G2U G22U A24G C31U, with 0.07; and G2U C31G A41G, with 0.03; and G2U G19U C23A G33C, with 0.02.
On to G2U U34A G44U, for which the self-cleavage stood at 0.03.
The figure for G2U G19U G29U G36C G44U is 0.03; for G2U G40A C46A it is 0.04.
Turning to G2U G29C U32G G40A C45A, the self-cleavage is 0.
Take C3A A6C G21A: the self-cleavage was 1.32.
As to G2U G17A A39C, the self-cleavage is 0.02.
Then G2U G30A C37A, with 0.05.
Consider G2U C37A C46G, for which the self-cleavage came out at 0.06.
Then G2U C10G C23U G29A U32A, with 0.01; and G2U C23A G29C C46G, with 0.03.
For G2U U9G A14C, the self-cleavage was 0.07.
On to G2U G5A A12G G40U, for which the self-cleavage came out at 0.05.
On to G2U C15A U28A, for which the self-cleavage stood at 0.05.
Consider G2U G21C C31U, for which the self-cleavage was 0.02.
C3A A4G C8U G21A: the self-cleavage stood at 0.48.
For G2U G7C A14C G35U, the self-cleavage came to 0.03.
As to G2U U20C G22C, the self-cleavage came out at 0.22.
For the variant G2U C13A C23U G35C G40A C42U, the self-cleavage amounted to 0.04.
Then G2U G21U G44C, with 0.01.
The figure for G2U C18G G30U C46A is 0.04.
The figure for G2U U9C G22C is 0.01; for G2U G7A C37A C45A it is 0.05.
As for G2U U38C C46G, the self-cleavage was 0.03.
In the case of G2U G17A U20C G21U G22A G36A, the self-cleavage is 0.02.
As for G2U G17C U20G G35A, the self-cleavage amounted to 0.02.
As to C3A A6G C23A, the self-cleavage came to 0.11.
The figure for G2U G7A A12C G40A G44A is 0.01.
For C3A A6G C18U U34C A39C G44A, the self-cleavage came out at 0.
The figure for C3A A4G C18A U28A is 0.09; for G2U G17U G19A C42G it is 0.04.
The figure for G2U G7C G22U U32G G44A is 0.16.
For the variant G2U G5U C15A, the self-cleavage came to 0.02.
C3A A6C A16G A25U G33C G36U: the self-cleavage amounted to 0.02.
As to G2U C13A G35U, the self-cleavage turned out to be 0.03.
As to C3A A4C A16G G40U, the self-cleavage came out at 0.27.
Then G2U U28A G33U C45G, with 0.02; and G2U G7A U9G A11C G17A, with 0; and G2U U38G G40A C46U, with 0.
With G2U C15U G17U A24U A26C G35C, the self-cleavage stood at 0.07.
In the case of G2U G5U U38A, the self-cleavage was found to be 0.02.
As to G2U C15G U20G A26U C37A C46U, the self-cleavage stood at 0.01.
For G2U G7A C10A G22U U32A U34C C37A, the self-cleavage was 0.01.
Consider G2U G35A G40U G44A, for which the self-cleavage is 0.05.
For the variant C3A A4G C8A A16U C18A C23G, the self-cleavage was determined as 1.16.
As for G2U U28A C42U, the self-cleavage was found to be 0.
For the variant G2U G33A C37U, the self-cleavage was 0.01.
Consider G2U U20G G27C U43C G44C C45U, for which the self-cleavage came to 0.01.
As to G2U G19C G36A C46A, the self-cleavage worked out at 0.1.
With G2U G19C G29A, the self-cleavage came out at 0.03.
With G2U G17U A24U G44U, the self-cleavage came to 0.05.
Turning to C3A A6U A11C G19C G27C U28A, the self-cleavage was 0.01.
Regarding G2U C10U G36C, the self-cleavage was 0.01.
Consider C3A A6C U34A A39U, for which the self-cleavage came out at 0.01.
The figure for G2U G35A G40U is 0.06; for C3A A6G C15U G21U G30A C42G C45A it is 0.13; for C3A A4U G21U U28A C31A A39U it is 0.21.
The figure for G2U U9A C18A A26U A41G is 0; for G2U U9G C46U it is 0.02.
In the case of G2U G7A U9C C31A, the self-cleavage was 0.04.
In the case of G2U G7C U20C, the self-cleavage turned out to be 0.02.
For G2U G27U C37A G40C, the self-cleavage turned out to be 0.04.
C3A A6C G7A G21C U34G: the self-cleavage was 0.05.
Turning to G2U G22C C31G C42U, the self-cleavage was 0.02.
Then G2U U9G G22U C45G, with 0.03; and C3A A6G C10A C13A C45G, with 0.03.
With C3A A4G A14G C15U U28G, the self-cleavage came out at 0.02.
Then G2U C10A G29U C46A, with 0.03; and C3A A6G A11G, with 0.06.
Turning to G2U G17A A25C, the self-cleavage amounted to 0.05.
For G2U C15G C42G, the self-cleavage came out at 0.01.
For C3A A4U C42A, the self-cleavage came out at 0.12.
As for G2U U9A A25U, the self-cleavage is 0.01.
Take C3A A6C C15A U43C: the self-cleavage was 0.08.

The values above are taken from the RNAGym collection of RNA variant scans (doi:10.7554/elife.90254).
